# Measured values published in paper PMC3047500 (Nature immunology, 2010).
# T1: TACI (human primary naive B cells) (human (endogenous in primary B cells), UniProt O14836 1-293)
# T1 sequence: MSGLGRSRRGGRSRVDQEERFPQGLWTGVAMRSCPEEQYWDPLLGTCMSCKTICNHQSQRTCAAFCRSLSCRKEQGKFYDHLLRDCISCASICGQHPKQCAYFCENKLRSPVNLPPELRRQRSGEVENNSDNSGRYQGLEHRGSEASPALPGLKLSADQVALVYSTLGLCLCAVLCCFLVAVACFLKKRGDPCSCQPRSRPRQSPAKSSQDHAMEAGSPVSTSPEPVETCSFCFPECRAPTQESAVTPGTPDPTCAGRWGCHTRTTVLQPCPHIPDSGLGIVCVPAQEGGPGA
# B1: MyD88 (human primary naive B cells) (natural protein)
# chain: MAAGGPGAGSAAPVSSTSSLPLAALNMRVRRRLSLFLNVRTQVAADWTALAEEMDFEYLEIRQLETQADPTGRLLDAWQGRPGASVGRLLELLTKLGRDDVLLELGPSIEEDCQKYILKQQQEEAEKPLQVAAVDSSVPRTAELAGITTLDDPLGHMPERFDAFICYCPSDIQFVQEMIRQLEQTNYRLKLCVSDRDVLPGTCVWSIASELIEKRCRRMVVVVSDDYLQSKECDFQTKFALSLSPGAHQKRLIPIKYKAMKKEFPSILRFITVCDYTNPCTKSWFWTRLAKALSLP
# Biological target: T1, TACI (human primary naive B cells)
# Experiment: co-IP
binder,measurement,value
B1,fold increase of association after APRIL (15 min) against unstimulated cells,2 fold
